# Test results as given in PubChem BioAssay AID1240 (Sanford-Burnham Center for Chemical Genomics, 2008).
# Hit rate of the full screen: of about 50,000 compounds, about 800 (1.6%) showed an effect of 50% or more. The list shows a part of the results.
# Target: Bcl-2-like protein 10 (Homo sapiens) (UniProt Q9HD36)
# Experiment: TR3 peptide-Bcl-B binding displacers, biochemical primary FP assay, phenotype converters (AID 1240);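 note: 0% = Bcl-B with tracer peptide and DMSO and 100% = tracer peptide lacking Bcl-B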
# Settings: GST-Bcl-B / FITC-TR3 peptide fluorescence polarization; stronger effect = higher value; compound at 3.75 mg/L
# Chain of UniProt Q9HD36 (Q9HD36 whole entry, looked up): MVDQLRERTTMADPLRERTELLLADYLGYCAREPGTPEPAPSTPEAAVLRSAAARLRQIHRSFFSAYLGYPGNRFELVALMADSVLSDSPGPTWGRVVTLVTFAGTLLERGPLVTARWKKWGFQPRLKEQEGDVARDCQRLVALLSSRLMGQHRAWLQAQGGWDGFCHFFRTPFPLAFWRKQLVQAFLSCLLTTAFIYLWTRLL
row,SMILES,displacement [%]
1,CCOC(=O)C1=C(c2ccccc2)N=C2SCC(=O)N2C1c1ccc(OC)cc1 (stereo unspecified),9.2
2,COCCCNC(=O)c1ccc(OC)cc1,-11
3,CCN(CC)c1ccc(C=Nc2ccc(S(N)(=O)=O)cc2)c(O)c1,1.4
4,CC(=O)C1=C(O)C(=O)N(CC2CCCO2)C1c1ccc(Cl)cc1Cl (stereo unspecified),19.4
5,Cc1ccc(OCCOc2ccccc2C=O)cc1,-1.8
6,COc1ccc(NC(=O)c2ccc(-n3cnnn3)cc2)cc1,-21.6
7,O=C1c2ccccc2NC(c2cccc(O)c2)N1Cc1ccco1 (stereo unspecified),8.5
8,Cn1ccnc1Sc1ccc([N+](=O)[O-])cc1,-10.9
9,COc1ccc(Cl)cc1C(=O)Nc1ccc(N2CCCCC2)c(Cl)c1,-0.6
10,COc1ccc(C2C(C(=O)OC(C)C)=C(C)N=c3s/c(=C\c4ccc5c(c4)OCO5)c(=O)n32)cc1 (stereo unspecified),33.9
11,CN1c2ccccc2-c2ccccc2C12C=Cc1cc([N+](=O)[O-])ccc1O2 (stereo unspecified),-2.8
12,CCOC(=O)c1c(NC(=O)c2cccnc2)sc(C(=O)N(CC)CC)c1C,4.1
13,COc1cccc(/C=C2/SC(=S)N(CC(=O)O)C2=O)c1O,11
14,Cc1nn(CC(=O)Nc2ccc(Cl)cc2Cl)c(C)c1[N+](=O)[O-],10
15,COc1nc(Nc2ccc(C(C)=O)cc2)nc(OC)n1,-3.5
16,COc1ccc(CCNC(=O)/C=C/c2ccco2)cc1OC,6.9
17,O=c1nc(N2CCOCC2)nc(N2CCOCC2)[nH]1,13.1
18,c1ccc(OCCCCn2ccnc2)cc1,-9
19,Cc1ccc(OCC(=O)N2CCC(C(N)=O)CC2)c(Br)c1,-11.4
20,CC(=C\c1ccccc1)/C=C1/SC(=Nc2ccc(F)cc2)NC1=O,-22.2
21,Cc1c(C(=O)OC(C)C)sc(NC(=O)C2CC2c2ccccc2)c1C#N (stereo unspecified),-4.6
22,O=C(Nc1cccc2ncccc12)c1sc2ccccc2c1Cl,5.4
23,O=C(CCNc1ccc([N+](=O)[O-])cc1)c1cccs1,-12.3

row,SMILES,displacement [%]
1,COc1ccc(/C=C2\SC(N3CCC(C)CC3)=NC2=O)cc1,-8.4
2,COc1cc([N+](=O)[O-])ccc1N1C(=O)C2C3C=CC(C4CC34)C2C1=O (stereo unspecified),22.4
3,COc1ccc(N(CC(=O)NC(C)c2ccccc2)S(C)(=O)=O)cc1Cl (stereo unspecified),2.8
4,CCNc1cc(Nc2ccc(C)cc2)c2c3c(onc13)-c1ccccc1C2=O,14.1
5,Cc1ccc(N2C(=O)CC(NCCCN3CCOCC3)C2=O)cc1 (stereo unspecified),-1.5
6,O=[N+]([O-])c1ccc(-c2nnc(-c3ccc(F)cc3)o2)cc1,8.4
7,COC(=O)c1ccc(/C=C2/C(=O)NN(c3ccccc3)C2=O)cc1,1.9
8,CCOC(=O)c1[nH]c(=O)[nH]c1CN1CCc2ccccc2C1,-7.3
9,COc1cc(C(=O)c2cc(Br)ccc2NC(=O)COc2ccc(C)cc2)cc(OC)c1OC,17.2
10,COc1ccccc1N(CC(=O)NCC(C)c1ccccc1)S(=O)(=O)c1ccccc1 (stereo unspecified),-7.1
11,Cc1ccc(C23CC4CC(CC(C(=O)Nc5nn[nH]n5)(C4)C2)C3)cc1,2.1
12,Cc1cc([N+](=O)[O-])c2[nH]c(C(=O)N/N=C/c3ccncc3)c(-c3ccccc3)c2c1,-13.9
13,O=S(=O)(Nc1ncccc1O)c1ccc(Cl)cc1,1.1
14,CCOc1ccc(NC(=S)NC(NC(=O)OCc2ccccc2)C(Cl)(Cl)Cl)cc1 (stereo unspecified),0.7
15,O=C(NC(Nc1ccccc1)C(=O)c1ccccc1)c1ccco1 (stereo unspecified),-1.7
16,O=[N+]([O-])c1ccc(N2CCN(S(=O)(=O)c3ccccc3)CC2)c(C(F)(F)F)c1,0.7
17,CCC(Oc1ccccc1)C(=O)Nc1cc(Cl)ccc1C (stereo unspecified),-0.1
18,COc1ccc(NC(=O)c2c(NC(=O)Cc3ccccc3)sc3c2CCC(C)C3)cc1 (stereo unspecified),-19.5
19,COC(=O)c1ccc(Oc2nc(NC(C)C)nc(NC(C)C)n2)cc1,-0.6
20,O=C(CSc1cccc2cccnc12)Nc1ccc(/C=C/c2ccccc2)cc1,11.7
21,COc1ccc(/C=C/C(=O)NCCSc2ccccn2)cc1,8.7
22,CC(C)(C)c1cc(C(=O)N/N=C/c2cc(C(C)(C)C)c(O)c(C(C)(C)C)c2)n[nH]1,-3.4
23,COc1cc(/C=C2/C(=O)N(c3ccccc3)N=C2C)cc([N+](=O)[O-])c1O,19.2

row,SMILES,displacement [%]
1,Cc1ccc(S(=O)(=O)N(CC(=O)NCC2CCCO2)c2ccc(C(C)C)cc2)cc1 (stereo unspecified),1.2
2,CC(=O)Oc1cc(C(=O)Nc2ccccc2C(=O)O)cc(C(=O)Nc2ccccc2C(=O)O)c1,1.8
3,O=C(NCC1CCCO1)c1ccc(S(=O)(=O)N2CCOCC2)cc1 (stereo unspecified),-7.2
4,C=CCOC(=O)C1=C(C)NC(=S)NC1c1ccc(OC)cc1 (stereo unspecified),9.6
5,O=C(Cc1cccs1)NCC1CCCO1 (stereo unspecified),14.5
6,O=S(=O)(c1ccc(Br)cc1)N1CCN(C/C=C/c2ccccc2)CC1,-9.6
7,CCc1ccccc1NC(=O)/C=C/c1ccccc1,13.7
8,O=C(CSc1nnc(-c2ccccc2)c(-c2ccccc2)n1)Nc1nccs1,4.6
9,O=C(O)CCCNC(=O)c1cn(-c2ccccc2)nc1-c1ccccc1,16.9
10,COc1ccccc1C1Nc2ccccc2NC2=C1C(=O)CC(c1ccc(Cl)cc1)C2 (stereo unspecified),5.5
11,Cc1ccc(N2C(=O)CC(NCCc3ccc(Cl)cc3)C2=O)cc1Cl (stereo unspecified),-21.3
12,COc1cc(/C=N/N2C(=O)c3cccc4cccc(c34)C2=O)ccc1O,-2.7
13,COc1ccc(/C=N/N2CCN(Cc3ccc(C)cc3)CC2)cc1Br,5
14,CCOC(=O)c1sc(NC(NC(=O)c2ccco2)C(=O)c2ccccc2)c(C(=O)OCC)c1C (stereo unspecified),2.1
15,Cc1c(NC(=O)c2ccco2)cccc1[N+](=O)[O-],21.9
16,O=[N+]([O-])c1ccc(Cl)c2ncccc12,17.1
17,CCc1nnc(NC(=O)C2CC3CCC2C3)s1 (stereo unspecified),-2.8
18,COc1ccc(C(=O)N(CCCCN2C(=O)c3ccccc3C2=O)c2ccc(C)cc2)cc1OC,1.9
19,Cc1cc(Cl)ccc1OCC(=O)N1CCOCC1,-8.7
20,Clc1ccc(Nc2nc(N/N=C\c3cccnc3)nc(N3CCOCC3)n2)cc1,29.8
21,CCC(C(=O)Nc1cc([N+](=O)[O-])ccc1OC)c1ccccc1 (stereo unspecified),5.6
22,Cc1ccc2c(Cl)c(C(=O)O)sc2c1,0.8
23,Cc1ccc(C(=O)N2CCN(C)CC2)cc1,-7.7

row,SMILES,displacement [%]
1,CC(C)(C)C(=O)Oc1ccc2c(=O)c(Oc3ccccc3Br)coc2c1,7.3
2,O=C(O)CN(c1ccccc1)S(=O)(=O)c1ccccc1[N+](=O)[O-],4.7
3,O=C(Nc1ccccc1)Nc1nnc(-c2cccc(Br)c2)s1,11.9
4,COc1ccccc1N1CCN(C(=S)Nc2ccc(F)cc2)CC1,-0.4
5,Cc1cc(-c2ccc(F)cc2)nc2cc(C(=O)O)nn12,1.6
6,CC(=O)O/N=C(N)/C(=N/OC(C)=O)c1nc2ccccc2[nH]1,-10.3
7,COc1ccc(/C(N)=N/OC(=O)c2ccccc2I)cc1OC,10.9
8,CC12C=CC(O1)C1C(=O)N(c3ccccc3)C(=O)C12 (stereo unspecified),7.6
9,O=C(Nc1ccc(S(=O)(=O)N2CCCCCC2)cc1)c1ccc(F)cc1,1.3
10,COc1ccccc1N(CC(=O)Nc1cccc(C)c1C)S(=O)(=O)c1ccccc1,5.7
11,N#Cc1cc2c(nc1SCC(=O)Nc1ccc(S(N)(=O)=O)cc1)CCC2,-45.2
12,C(=Nc1ccccc1-c1nc2ccccc2[nH]1)c1ccco1,9.8
13,Cc1cc(=O)[nH]c(SCC(=O)Nc2ccccc2Br)n1,6.6
14,C/C(=C\c1ccccc1F)C(=O)c1c(C)cc(C)[nH]c1=O,4.5
15,Cc1ccc(/C=C/C(=O)Nc2nc(-c3ccccc3)c(C)s2)cc1,-2.3
16,CC(C)=CCC/C(C)=C/C1OCCCO1,-10.4
17,O=[N+]([O-])c1ccc(-c2noc(CCc3ccccc3)n2)cc1,10.1
18,COc1ccc(N=Cc2ccc(N3Cc4cc(C)c(C)cc4C3)cc2)cc1,3.1
19,COc1ccc(N(CC(=O)Nc2ccc(I)cc2)S(C)(=O)=O)cc1Cl,6.5
20,CCCC(=O)Nc1ccc(NC(=O)c2cccc([N+](=O)[O-])c2)cc1,12.7
21,Nc1nonc1C(=O)NCCNc1ccc([N+](=O)[O-])cc1Cl,1.6
22,Cc1cc(OCC(=O)NCc2ccco2)ccc1Br,1.6
23,COc1cc(C=O)cc(Br)c1OCCOc1ccc(C)c(C)c1,-9.4

row,SMILES,displacement [%]
1,O=C(NCCc1ccc(Cl)cc1)C1CC(=O)N(c2ccc(Br)cc2)C1 (stereo unspecified),9.4
2,Cc1ccccc1Cn1c(NC(=O)c2ccc(Cl)cc2)nc2ccccc21,8.8
3,Cn1c(SCC(=O)Nc2ccccc2)nc2ccccc21,-6.6
4,Cc1ccc(S(=O)(=O)N/N=C/c2cc(Cl)cc(Cl)c2O)cc1,1.7
5,O=C(COc1ccc(Cl)cc1Cl)NS(=O)(=O)c1ccccc1,15.9
6,Cn1c(=O)n(CC(=O)O)c2ccccc21,-6.5
7,O=C1CC(Cc2ccccc2)C(=O)N1CCc1ccc2c(c1)OCO2 (stereo unspecified),-8.6
8,COc1ccc(CN2CCN(C3CCCCC3)CC2)cc1Br,-1.9
9,Cc1cc(C)nc(Sc2nc(Nc3ccccc3)nc(Sc3nc(C)cc(C)n3)n2)n1,7.2
10,N#CC1=C(N)Oc2c([nH]c(=O)[nH]c2=O)C1c1ccccc1 (stereo unspecified),2.5
11,CN1C(c2ccccc2)CC(O)(C#Cc2ccccc2)CC1c1ccccc1 (stereo unspecified),-8
12,CC(=O)C1=C(O)C(=O)N(CC2CCCO2)C1c1ccc(O)cc1 (stereo unspecified),-2.6
13,COc1ccc(CCNC(=S)Nc2ccccc2)cc1,-7.6
14,Cc1ccc2nc(-c3ccc(N=Cc4ccc(Cl)c([N+](=O)[O-])c4)cc3)sc2c1,-4.8
15,CCN1C(=O)/C(=C2\SC(=S)N(CC3CCCO3)C2=O)c2ccccc21 (stereo unspecified),-7.3
16,CCOC(=O)c1ccc(NC(=S)NC(NC(=O)c2ccc(Br)cc2)C(Cl)(Cl)Cl)cc1 (stereo unspecified),-24.9
17,CC1(C)CC(=O)C(C=NCCc2ccc(S(N)(=O)=O)cc2)=C(O)C1,14
18,C/C(=N/NC(=O)c1ccoc1C)C12CC3CC(CC(C3)C1)C2,14.3
19,CC(=O)Nc1ccccc1NC(=O)COc1cccc(C)c1,-5.8
